Measurements: PubChem BioAssay AID1030 (National Center for Advancing Translational Sciences (NCATS), 2008)
Screen size: about 220,000 compounds; about 16,000 (7.3%) were called active. Inconclusive results, whose numbers are uncertain, are shown with a selection of clear calls. The call rests on the fitted dose curve; in most records, active means well fitted inhibition curve with a large enough effect (not every such curve was filed as active); inconclusive means small, poorly fitted or top-dose-only effect, or another doubt; inactive means no such curve, though single readings can be large or run the other way. Potencies of inconclusive entries are left out as doubtful fits.

These compounds were tested against Aldehyde dehydrogenase 1A1 (Homo sapiens) (UniProt P00352) (assay: qHTS Assay for Inhibitors of Aldehyde Dehydrogenase 1 (ALDH1A1)). Conditions: Purified ALDH1A1, NADH fluorescence, propionaldehyde substrate; series mostly up to 75.3 µM.
UniProt P00352, sequence (P00352 whole entry, looked up): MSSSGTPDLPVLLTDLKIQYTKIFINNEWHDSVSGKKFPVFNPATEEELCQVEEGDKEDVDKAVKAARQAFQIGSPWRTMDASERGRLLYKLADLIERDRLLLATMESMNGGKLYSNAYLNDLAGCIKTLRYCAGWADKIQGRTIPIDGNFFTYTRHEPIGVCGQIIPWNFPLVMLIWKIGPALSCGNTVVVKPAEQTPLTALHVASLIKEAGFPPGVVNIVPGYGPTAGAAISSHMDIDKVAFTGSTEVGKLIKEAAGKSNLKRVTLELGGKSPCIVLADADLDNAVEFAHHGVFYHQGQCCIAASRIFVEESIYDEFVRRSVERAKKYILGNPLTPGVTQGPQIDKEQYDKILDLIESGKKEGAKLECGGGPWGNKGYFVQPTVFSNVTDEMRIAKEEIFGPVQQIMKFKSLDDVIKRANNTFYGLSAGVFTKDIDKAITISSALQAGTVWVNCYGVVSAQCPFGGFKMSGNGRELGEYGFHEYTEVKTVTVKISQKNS
Potency means the concentration at half of the fitted maximal effect; tags describe the fitted curve by direction and shape.
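Wherever activity, negative = inhibition is given: plate controls were no enzyme wells and a reference inhibitor.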

Row | Compound | Potency | activity, negative = inhibition
1 | O=C(Cn1nc(-c2cccc([N+](=O)[O-])c2)c2ccccc2c1=O)NCC1CCCO1 (stereo not given) | inactive | –
2 | CN(C)C(=O)CN1CCN(c2nc3nonc3nc2N2CCCCC2)CC1 | inactive | –
3 | O=C(Nn1c(-c2ccc(F)cc2)nc2ccccc2c1=O)c1cccnc1 | inactive | –
4 | O=c1cc(O)sc2ccccc12 | inconclusive [inhibitor, partial curve] | –
5 | Cc1c(C=O)c2ccccn2c1C(=O)c1ccc(Cl)c([N+](=O)[O-])c1 | active: 2.82 µM | –
6 | Cc1[nH]c2ccccc2c1/C=N/Nc1ccc(F)cc1F | inconclusive [inhibitor, single point] | –
7 | O=C(NCc1ccco1)c1cc(NS(=O)(=O)c2cccc([N+](=O)[O-])c2)ccc1O | active: 11.2 µM | –
8 | O=C1c2ccccc2C(=O)N1CCCc1nc(-c2ccncc2)no1 | inactive | –
9 | CC1CCN(S(=O)(=O)c2ccc3c(c2)C(=NO)c2cc(S(=O)(=O)N4CCC(C)CC4)ccc2-3)CC1 | inactive | –
10 | CC1=C(C(=O)OCc2ccccc2)C(c2ccccc2)NC(=O)N1CCCCCC(=O)O (stereo not given) | inactive | –
11 | CCOC(=O)c1cnn(-c2nc(SC)nc3sc4c(c23)CCCC4)c1N | active: 1.12 µM | –
12 | c1ccc2c(c1)nnn2Cc1nnc2sc(-c3ccncc3)nn12 | inconclusive [inhibitor, single point] | –
13 | Cc1c(C)n(CC(O)CNCCO)c2ccccc12 (stereo not given) | inconclusive [inhibitor, single point] | –
14 | COc1ccccc1NC(=O)COC(=O)Cc1cccs1 | inactive | –
15 | COc1cccc(NC(=O)c2oc3ccccc3c2NC(=O)c2ccc3c(c2)OCO3)c1 | inconclusive [inhibitor, single point] | –
16 | COc1cc(/C=C2/SC(=S)N(C)C2=O)ccc1OC(=O)c1ccco1 | inactive | –
17 | O=C(Nc1ccc(N2CCN(C(=O)c3cccs3)CC2)c(Cl)c1)c1cccnc1 | inactive | –
18 | CCC(=O)N1CCc2cc(S(=O)(=O)NC(C(=O)NC(C)c3ccccc3)C(C)C)ccc21 (stereo not given) | inactive | –
19 | CC1(C)Cc2c(c(N3CCOCC3)nc3sc4c(NCCN5CCOCC5)nnnc4c23)CS1 | inconclusive [inhibitor, single point] | –
20 | CC(C)n1nnnc1SCC(=O)NCc1ccc2c(c1)OCO2 | inconclusive [inhibitor, partial curve] | –
21 | CCN(CC)CC#CCC(OC)(c1ccccc1)c1ccccc1 | inactive | –
22 | COc1cccc(O)c1O | active: 0.447 µM | –
23 | COc1ccccc1CNc1nc(-c2ccc(N(C)C)cc2)nc2ccccc12 | inconclusive [inhibitor, single point] | –
24 | CCCCC1=NN2C(=N)CC(=O)N=C2S1 | inconclusive [inhibitor, full curve] | –
25 | Cc1cccc(NCC(=O)c2c(N)n(C)c(=O)n(C)c2=O)c1C | inconclusive [inhibitor, full curve] | –
26 | Cc1nc(N2CCOCC2)nc(N2CCCCC2)c1[N+](=O)[O-] | active: 15.8 µM | –
27 | N#Cc1cccc(-c2cn(S(=O)(=O)c3ccc(Cl)cc3)nc2N)c1 | inactive | –
28 | Cc1c(C)c(C)c(CC2(C)CSC2)c(CC2(C)CSC2)c1C | – | inactive: 0.869% [at 13.5 µM]

Row | Compound | Potency | activity, negative = inhibition
29 | COc1ccc(N2CCN(S(=O)(=O)c3ccc(C(=O)NCc4ccco4)cc3)CC2)cc1 | active: 7.94 µM | –
30 | CCCN1CCCc2ccccc21 | inconclusive [inhibitor, single point] | –
31 | COc1cc(C(=O)Nc2ccc(S(=O)(=O)N(C)c3ccccc3)cc2)cc(OC)c1OC | inactive | –
32 | Cc1ccc(NC(=O)CN2C(=O)NC(Cc3ccccc3)C2=O)c(Br)c1 (stereo not given) | inactive | –
33 | S=C(c1ccc(-c2cc(Cl)ccc2Cl)o1)N1CCOCC1 | active: 22.4 µM | –
34 | O=C(Cn1cnc2ccccc2c1=O)N1CCN(c2ccccc2)CC1 | inactive | –
35 | CC1CCCCN1C(=O)C12CCC(C)(C(=O)C1)C2(C)C (stereo not given) | inconclusive [inhibitor, single point] | –
36 | O=C(COC(=O)c1cnccn1)NCc1ccc2c(c1)OCO2 | inactive | –
37 | COc1ccc(OC2C(=O)N(c3ccc(C)c(C)c3)C2c2ccc(OC)c(OC)c2)cc1 (stereo not given) | inactive | –
38 | CC(CCc1ccccc1)NC(=O)N1CCOCC1 (stereo not given) | inactive | –
39 | CCOc1ccc(C(=O)N/N=C/c2cccc3cccnc23)cc1 | inactive | –
40 | Cc1ccc(S(=O)(=O)N(C)CC(=O)OCc2nnc(-c3ccccc3)o2)cc1 | inconclusive [inhibitor, single point] | –
41 | COc1cc(CO)ccc1OCc1nnnn1-c1ccc(C)cc1 | inactive | –
42 | O=S(=O)(Nc1cccnc1)c1cccc(C(F)(F)F)c1 | inactive | –
43 | c1cncc(CNc2ccnc(-c3ccc4c(c3)OCO4)n2)c1 | inconclusive [inhibitor, single point] | –
44 | O=C(NCc1ccco1)C1CCN(c2nnc(-n3cccc3)s2)CC1 | inconclusive [inhibitor, single point] | –
45 | Cc1cnc(C(=O)Nc2ccccc2-n2cccc2)cn1 | active: 15.8 µM | –
46 | O=C(NCCN1CCCC1)c1ccc(Cn2c(=S)[nH]c3ccc(Br)cc3c2=O)cc1 | inactive | –
47 | Cc1cc(C)n(CC(O)CN2c3ccccc3Sc3ccccc32)n1 (stereo not given) | inactive | –
48 | CC(=O)c1ccc(OCC(O)CN(C)Cc2cccs2)cc1 (stereo not given) | inconclusive [inhibitor, single point] | –
49 | O=C(CN1CCN(Cc2ccccc2)CC1)N=Nc1c(O)[nH]c2ccccc12 | inactive | –
50 | CCc1nc(NCCCCCO)c2nnn(Cc3ccccc3F)c2n1 | active: 1.41 µM | –
51 | CC1=NOC(=O)/C1=C\c1ccc(-c2ccccc2Br)o1 | active: 17.8 µM | –
52 | CCOC(=O)c1ccc(NC(=O)CCc2nc(-c3ccccc3Cl)no2)cc1 | inconclusive [inhibitor, single point] | –
53 | C=CCN1C(=O)C(Cc2ccc(OCC)cc2)S/C1=N\N=C\c1cccs1 (stereo not given) | active: 4.47 µM | –
54 | Cc1cc(C)n(C(=O)CCCn2nc(C)c([N+](=O)[O-])c2C)n1 | inactive | –
55 | Cn1c2c(c3ccccc31)CCSC2=O | inconclusive [inhibitor, single point] | –
